PubChem BioAssay AID1745853 (National Center for Advancing Translational Sciences (NCATS), 2022)
The list shows a part of the results. Shown are side measurements of this screen, not its main read-out; they come without a call.

Experiments:
Assay in all cases: Primary Screen for Target Class Profiling of Small Molecule Inhibitors of Methyltransferases
[1] = target: Glycine N-methyltransferase (Homo sapiens) (UniProt Q14749); settings: purified enzyme, MTase-Glo SAH luminescence; measured here: GNMT inhibition; at 40 µM; stronger effect = lower value
How it was run: (§1)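 Each enzyme was reacted with SAM and its substrate, with compounds tested once at 40 uM; SAH formed was read by MTase-Glo luminescence.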

[2] = target: Guanidinoacetate N-methyltransferase (Homo sapiens) (UniProt Q14353); settings: purified enzyme, MTase-Glo SAH luminescence; measured here: GAMT inhibition; at 40 µM; stronger effect = lower value
How it was run: as §1

[3] = target: Histamine N-methyltransferase (Homo sapiens) (UniProt P50135); settings: purified enzyme, MTase-Glo SAH luminescence; measured here: HNMT inhibition; at 40 µM; stronger effect = lower value
How it was run: as §1

[4] = target: Nicotinamide N-methyltransferase (Homo sapiens) (UniProt P40261); settings: purified enzyme, MTase-Glo SAH luminescence; measured here: NNMT inhibition; at 40 µM; stronger effect = lower value
How it was run: as §1

[5] = target: Phenylethanolamine N-methyltransferase (Homo sapiens) (UniProt P11086); settings: purified enzyme, MTase-Glo SAH luminescence; measured here: PNMT inhibition; at 40 µM; stronger effect = lower value
How it was run: as §1
% is scaled to controls: 0 for no effect and ±100 for the full control effect.

Structure (SMILES)	activity change, negative = inhibition [1]	activity change, negative = inhibition [2]	activity change, negative = inhibition [3]	activity change, negative = inhibition [4]	activity change, negative = inhibition [5]
C=C1CC[C@@H](O)[C@]2(C)CC[C@H]3C(=C)C(=O)O[C@@H]3[C@@H]12	-1.56%	-3.01%	5.05%	-9.32%	-0.235%
C[C@@H]1O[C@@H](O[C@H]2[C@@H]3C=CO[C@@H](O[C@@H]4O[C@H](CO)[C@@H](O)[C@H](O)[C@H]4O)[C@@H]3[C@@]3(CO)O[C@@H]23)[C@H](O)[C@H](OC(=O)/C=C/c2ccccc2)[C@H]1O	-0.668%	-2.8%	3.71%	-11.7%	-0.973%
C[C@H](Cc1ccc(O)c(O)c1)[C@@H](C)Cc1ccc(O)c(O)c1	-93.7%	-18.7%	-23.6%	-18.2%	-13.1%
CC(C)NC(=O)c1ccnc(-c2ccccc2S(=O)(=O)NC(C)(C)C)c1	-1.11%	-1.89%	-0.727%	-7.37%	-6.21%
CC(=O)SCC(=O)c1ccc(NS(=O)(=O)c2ccc(OCCCN(C)C)cc2)nc1	-2.68%	-8.04%	-11.4%	-17.7%	-5.57%
O=C(COC(=O)C(Cc1c[nH]c2ccccc12)NC(=O)c1ccc(Cl)cc1)c1ccc(Br)cc1 (centres undefined)	0.487%	4.29%	-3.23%	-11.3%	-6.88%
COC(=O)c1ncn2c1C(=O)N(C(C)c1ccccc1)C(C)(C(=O)NC1CCCCCC1)C2 (centres undefined)	7.84%	1.26%	3.82%	6.93%	5.38%
CC(C)CCn1c(=O)c2ccccc2n2c(=O)n(Cc3ccc(Cl)cc3)nc12	1.61%	0.763%	5.49%	-4.86%	2.87%
CCOC(=O)c1c2c3c(cccc3[nH]c1=O)C(=O)c1ccccc1-2		-3.49%		-21.2%	-2.84%
CCCn1c(=O)c2ccc(C(=O)NC3CCCC3)cc2n2c(=O)n(CC(=O)c3ccc(F)cc3F)nc12	-1.96%	1.04%	-2.97%	-4.47%	-4.18%
CC(C)c1ccc(S(=O)(=O)c2nnn3c2nc(N2CCOCC2)c2ccccc23)cc1	-11.7%	1.95%	-4.77%	-11.1%	-11.2%
O=C1CCCC2=C1C(c1ccccc1Br)N=C(Nc1nc3ccccc3o1)N2 (centres undefined)		-4.92%		-17.4%	2.98%
CCCNCCc1ccc(NS(=O)(=O)c2ccc(OC(F)(F)F)cc2)cc1	2.56%	11.1%	8.49%	-6.38%	4.68%
CNC(=O)Cn1ccc2cc(S(=O)(=O)N3CCCCC3)ccc21	3.37%	5%	0.251%	3.66%	0.053%
Cc1ccccc1-c1cn(C)c(=O)n2cc(CNc3ccccc3)nc12	-7.6%	-13.1%	-4.44%	-29.1%	-6.03%
COc1cc(/C=C/C=O)cc(OC)c1O[C@@H]1O[C@H](CO)[C@@H](O)[C@H](O)[C@H]1O	4.5%	4.97%	10.2%	-6.58%	2.88%
CC(C)Cn1c(=O)c2ccc(C(=O)NC3CCCC3)cc2n2c(=O)n(Cc3ccc(Cl)cc3)nc12	3.78%	7%	5.05%	1.07%	4.68%
CC1CC(C)CN(S(=O)(=O)c2ccc3c(c2)oc(=O)n3CC(=O)NCc2ccccn2)C1 (centres undefined)	0.157%	6.04%	6.02%	9.74%	0.494%
Cn1cnc2c(F)c(Nc3ccc(Br)cc3Cl)c(C(=O)NOCCO)cc21	-18%	-10.5%	-2.83%	-22.7%	-1.4%
COC(=O)C(CC1(O)c2ccccc2N2C(=O)C(C)(C)N(O)C21)n1cnc2ccccc2c1=O (centres undefined)	3.12%	-0.496%	6.32%	-27.2%	0.074%

Structure (SMILES)	activity change, negative = inhibition [1]	activity change, negative = inhibition [2]	activity change, negative = inhibition [3]	activity change, negative = inhibition [4]	activity change, negative = inhibition [5]
C=Cc1ccc(Cn2nc3n(CC(C)C)c(=O)c4ccc(C(=O)NC(C)C)cc4n3c2=O)cc1	0.213%	4.66%	-4.05%	-1.24%	0.738%
COc1ccccc1C(C(=O)O)N1CCC(OCc2cccnc2)CC1 (centres undefined)	-2.39%	-3.11%	-1.32%	3.83%	-1.05%
CN1CCC(Nc2ncc(C(C)(C)C(=O)O)c(N3CCOCC3)n2)CC1	-0.211%	-2.65%	-3.9%	-2.25%	1.76%
O=C(Cn1c(=O)oc2cc(S(=O)(=O)NC3CCCC3)ccc21)N1CCCC1	0.245%	2.49%	7.98%	17.2%	3.92%
C=C1C(O)C[C@@H]2C(C(=O)O)=CO[C@@H](O[C@@H]3O[C@H](CO)[C@@H](O)[C@H](O)[C@H]3OC(=O)c3ccc(O)cc3)[C@H]12 (some centres undefined)	-0.144%	-4.44%	7.93%	-19.4%	3.08%
CCCN1C(=O)c2c(C(=O)N3CCN(c4ccccc4)CC3)ncn2CC1(C)C(=O)NCc1ccc(F)cc1 (centres undefined)	0.558%	2.04%	9.66%	6.87%	10.1%
O=C(CCc1nnn2c1CN(Cc1cn[nH]c1-c1ccc(F)cc1)CC2)N1CCCC1	-4.43%	-7.58%	-2.62%	-13.3%	-4.93%
Cc1ccc(CN2C(=O)c3nc4ccccc4n3CC2(C)C(=O)NC2CCCCC2)cc1 (centres undefined)	-4.85%	0.588%	3.06%	2.63%	-1.79%
C/C=C/C=C/C(=O)N1CC[C@]23c4ccccc4N[C@H]4N(C)c5cccc6c5[C@@]42CCN([C@H]6C2OC2(C)C)[C@H]13 (some centres undefined)	0%	-7.86%	0.181%	-22.4%	-3.23%
O=C(O)CC1CCCCN(Cc2ccccc2)C1=O (centres undefined)	-6.18%	-7.88%	-2.87%	-10.4%	-4.32%
OC[C@@H]1O[C@H](CNCc2cccc(Cl)c2)[C@H](N2CCN(c3ccccn3)CC2)[C@@H]1O	-2.51%	-1.52%	-3.63%	-2.88%	-4.7%
CCCCCCCCCCCCCCCC(=O)N[C@H](CN1CCOCC1)[C@H](O)c1ccccc1		19%		4.05%	9.59%
CC1=C[C@@H](CN2CCC(O)CC2)[C@H](C(C)C)C[C@H]1Cc1nnc(-c2ccncc2)o1	-5.27%	-10.4%	-11.9%	-13.5%	-5.17%
Cc1nn(C)c(=O)n1C1CCN(C(=O)c2ccco2)CC1	-4.29%	-5.88%	-1.87%	-6.86%	-0.137%
COc1ccc(OC)c2c1cc1n2CC(C)(C(=O)NC2CCCCC2)N(CCC(C)C)C1=O (centres undefined)	-13.9%	-4.37%	-8.98%	-20.1%	-21.6%
O=C(CCC1CCCN(Cc2cccn2-c2ccccn2)C1)Nc1ccccc1F (centres undefined)	-4.79%	0.409%	-49.9%	-8.99%	6.69%
Cc1ccc2c(c1)c(-n1cccc1)c1n2CC(C)(C(=O)NC2CCCC2)N(Cc2ccco2)C1=O (centres undefined)	-5.21%	4.17%	-1.93%	-15.5%	-3%
COCCCNC(=O)CCc1nnc2n(Cc3ccc(F)cc3)c(=O)c3ccccc3n12	-4.55%	0%	6.81%	4.05%	-0.547%
O=C(NC1CCCN(c2cc(-c3ccc(F)cc3)[nH]n2)C1)c1cnccn1 (centres undefined)	-8.69%	-1.15%	-2.08%	-8.51%	4.9%
Cc1ccccc1-n1nc(-c2c(-c3ccc(F)cc3)nn3c2NC[C@@H](CO)C3)ccc1=O	-2.67%	-5.14%	3.03%	-23.6%	-10.2%

Structure (SMILES)	activity change, negative = inhibition [1]	activity change, negative = inhibition [2]	activity change, negative = inhibition [3]	activity change, negative = inhibition [4]	activity change, negative = inhibition [5]
Cc1cnc(CCNC(=O)Cc2ccncc2)n1CC1CC1	-2.84%	-3.94%	-19.9%	-8.49%	-4.32%
CN(Cc1nccs1)C(=O)CC(c1ccccc1)c1cccc(Cl)c1 (centres undefined)	-3.85%	-0.002%	0.507%	-12%	-0.657%
COc1ccc2c(c1)CC(NS(=O)(=O)c1ccc(C)cc1)CO2 (centres undefined)	-11.1%	-2.28%	-2.44%	-4.54%	-3.5%
CC1=C(C)C(=O)OC(C(C)C2C(O)CC3C4C5OC5C5(O)CC(OC6OC(CO)C(O)C(O)C6O)CC(O)C5(C)C4CCC32C)C1 (centres undefined)	0%	-1.27%	2.62%	-14.4%	2.5%
CCOc1ccc(CN2C(=O)c3nc4ccccc4n3CC2(C)C(=O)NC2CCCC(C)C2C)cc1 (centres undefined)	-5.63%	0%	-2.6%	-3.79%	-1.15%
COc1cccc(CNC(=O)c2cc3n(n2)CC(C)(C(=O)NCc2ccc(F)cc2)N(C)C3=O)c1 (centres undefined)	6.05%	4.83%	3.61%	1.4%	1.25%
CC(C)=CCC/C(C)=C/CC/C(C)=C/CC[C@]1(C)CCc2cc(O)cc(C)c2O1	0%	-17.2%	0.451%	-24.2%	-2.22%
Cc1noc(C)c1[S+](=O)([O-])N1CCn2cc(C(=O)Nc3ccc(Cl)cc3Cl)nc2C1	-4.09%	-5.87%	-2.86%	-5.29%	-9.66%
O=C(Cn1ccc2cc(S(=O)(=O)N3CCCC3)ccc21)NCCc1ccccc1	-1.1%	2.88%	-4.21%	-3.59%	-12.6%
CCOc1ccccc1C(=O)N1CCC(c2n[nH]c(=O)n2Cc2ccc(OC)cc2)CC1	-3.83%	-1.41%	-13.1%	-5.65%	-0.011%
CC1(C(=O)NC2CCCCCC2)Cn2c(ccc2-c2ccco2)C(=O)N1CCc1cccs1 (centres undefined)	0.738%	0%	5.45%	-1.2%	1.87%
Cn1c(=O)c2ccccc2n2c(CCC(=O)NCCc3ccccc3)nnc12	0.495%	-0.572%	-3.06%	-12.9%	-1.74%
CC(=O)OC1C(O)C2C(C)C3=CC(=O)OC3(O)CC2C2(C)CCCC(C)(CO)C12 (centres undefined)	0%	3.85%	6.86%	-5.84%	7.27%
NC(=O)c1ccccc1	-9.82%	0.936%	-2.13%	-13.3%	5.66%
O=c1c2ccccc2n2c(-c3ccc(Cl)cc3)nnc2n1Cc1ccc(F)cc1	-10.4%	0.643%	-4.29%	-10.2%	-5.16%
CC1(C)CC[C@]2(C(=O)O[C@@H]3O[C@H](CO)[C@@H](O)[C@H](O)[C@H]3O)CC[C@]3(C)C(=CCC4[C@@]5(C)CC[C@H](O[C@@H]6O[C@H](C(=O)O)[C@@H](O)[C@H](O)[C@H]6O)C(C)(C)C5CC[C@]43C)C2C1 (some centres undefined)	4.03%	5.99%	8.73%	-6.96%	3.08%
O=C(c1ccccc1)c1ccc2nc(NC(=O)c3csc(C4CCN(c5ncnc6ccsc56)CC4)n3)[nH]c2c1	-0.231%	-24%	4.12%	-65.9%	-36.8%
CCc1ccccc1NC(=O)Cn1nc2n(CC(C)C)c(=O)c3ccc(C(=O)NC(C)CC)cc3n2c1=O (centres undefined)	-5.15%	1.7%	-3.93%	-2.44%	-0.611%
